Assay results reported in the supplement of paper PMC10369915.
The other results are listed elsewhere or left out. Cut-off read from the data, not from the text of the source: active = 3.2 or more and inactive = the rest. The signal is at background level for most entries.

How the values were obtained:
Test in all cases: enrichment score (SH2-bound / input frequency) (ratio); bacterial display of known human phosphotyrosine sites (pTyr-Var adds point mutants) read by sequencing; higher = stronger binding; tyrosines were phosphorylated by kinases first
Conditions in all cases: peptide library: pTyr-Var
SHP2 C-SH2 domain E139D = molecular target: SHP2 C-SH2 domain E139D
[1] = molecular target: SHP2 C-SH2 domain wild-type
SHP2 N-SH2 domain L43F = molecular target: SHP2 N-SH2 domain L43F
SHP2 N-SH2 domain T42A = molecular target: SHP2 N-SH2 domain T42A
SHP2 N-SH2 domain T52S = molecular target: SHP2 N-SH2 domain T52S
[2] = molecular target: SHP2 N-SH2 domain wild-type

Measured: enrichment score
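Note: displayed peptides selected on beads carrying the immobilized SH2 domain, with library peptides lacking any tyrosine serving as negative controls.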

EPYKVYRIVPE [IRF8_Y110]
inactive: SHP2 C-SH2 domain E139D 0.811 | [1] 0.509 | SHP2 N-SH2 domain L43F 0.575 | SHP2 N-SH2 domain T42A 0.598 | SHP2 N-SH2 domain T52S 0.756 | [2] 0.65

GEDLSYGDVPP [IRS1_Y151]
inactive: SHP2 C-SH2 domain E139D 0.467 | [1] 0.539 | SHP2 N-SH2 domain L43F 0.477 | SHP2 N-SH2 domain T42A 0.374 | SHP2 N-SH2 domain T52S 0.479 | [2] 0.593

GDDLSYGDVPP [IRS1_Y151_E147D]
inactive: SHP2 C-SH2 domain E139D 0.35 | [1] 0.39 | SHP2 N-SH2 domain L43F 0.353 | SHP2 N-SH2 domain T42A 0.438 | SHP2 N-SH2 domain T52S 0.477 | [2] 0.94

PARLEYYENEK [IRS1_Y46]
inactive: SHP2 C-SH2 domain E139D 1.26 | [1] 1.22 | SHP2 N-SH2 domain L43F 1.21 | SHP2 N-SH2 domain T42A 1.83 | SHP2 N-SH2 domain T52S 1.03 | [2] 1.39

PARLEYCENEK [IRS1_Y46_Y47C]
inactive: SHP2 C-SH2 domain E139D 0.836 | [1] 0.619 | SHP2 N-SH2 domain L43F 0.743 | SHP2 N-SH2 domain T42A 1.13 | SHP2 N-SH2 domain T52S 0.776 | [2] 0.765

ARLEYCENEKK [IRS1_Y47_Y47C]
inactive: SHP2 C-SH2 domain E139D 0.59 | [1] 0.608 | SHP2 N-SH2 domain L43F 0.589 | SHP2 N-SH2 domain T42A 0.728 | SHP2 N-SH2 domain T52S 0.694 | [2] 0.683

ARLEFCENEKK [IRS1_Y47_Y47C_YF]
inactive: SHP2 C-SH2 domain E139D 0.941 | [1] 0.885 | SHP2 N-SH2 domain L43F 0.946 | SHP2 N-SH2 domain T42A 0.994 | SHP2 N-SH2 domain T52S 0.849 | [2] 1.17

HRDDGYMPMSP [IRS1_Y612_T608R]
inactive: SHP2 C-SH2 domain E139D 0.6 | [1] 0.721 | SHP2 N-SH2 domain L43F 0.741 | SHP2 N-SH2 domain T42A 0.501 | SHP2 N-SH2 domain T52S 0.646 | [2] 0.711

VKALKYKSMKI [ITGA11_Y1098_L1093V]
inactive: SHP2 C-SH2 domain E139D 1.21 | [1] 1.25 | SHP2 N-SH2 domain L43F 1.32 | SHP2 N-SH2 domain T42A 1.12 | SHP2 N-SH2 domain T52S 1.43 | [2] 1.31

SWDKRYCEAGC [ITGA2B_Y197_F202C]
inactive: SHP2 C-SH2 domain E139D 0.67 | [1] 0.566 | SHP2 N-SH2 domain L43F 0.612 | SHP2 N-SH2 domain T42A 0.576 | SHP2 N-SH2 domain T52S 0.558 | [2] 0.564

EYFDGYWGYSV [ITGA2B_Y265]
inactive: SHP2 C-SH2 domain E139D 1.21 | [1] 1.27 | SHP2 N-SH2 domain L43F 1.47 | SHP2 N-SH2 domain T42A 1.29 | SHP2 N-SH2 domain T52S 1.51 | [2] 1.33

EQMASYFGHSV [ITGA2B_Y319]
inactive: SHP2 C-SH2 domain E139D 0.963 | [1] 0.694 | SHP2 N-SH2 domain L43F 0.758 | SHP2 N-SH2 domain T42A 0.723 | SHP2 N-SH2 domain T52S 0.797 | [2] 0.745

EQMASYSGHSV [ITGA2B_Y319_F320S]
inactive: SHP2 C-SH2 domain E139D 0.744 | [1] 0.51 | SHP2 N-SH2 domain L43F 0.525 | SHP2 N-SH2 domain T42A 0.622 | SHP2 N-SH2 domain T52S 0.556 | [2] 0.601

EVGHVYLFLQP [ITGA2B_Y360_R358H]
inactive: SHP2 C-SH2 domain E139D 0.584 | [1] 0.761 | SHP2 N-SH2 domain L43F 0.631 | SHP2 N-SH2 domain T42A 0.494 | SHP2 N-SH2 domain T52S 0.539 | [2] 0.813

TGTQLYGRFGS [ITGA2B_Y384]
inactive: SHP2 C-SH2 domain E139D 0.723 | [1] 0.748 | SHP2 N-SH2 domain L43F 0.799 | SHP2 N-SH2 domain T42A 0.687 | SHP2 N-SH2 domain T52S 0.711 | [2] 0.696

WDLSEYSYKDP [ITGA3_Y237]
inactive: SHP2 C-SH2 domain E139D 1.16 | [1] 0.809 | SHP2 N-SH2 domain L43F 0.894 | SHP2 N-SH2 domain T42A 0.92 | SHP2 N-SH2 domain T52S 0.893 | [2] 1.15

WDLSEYSFKDP [ITGA3_Y237_YF]
inactive: SHP2 C-SH2 domain E139D 1.75 | [1] 1.11 | SHP2 N-SH2 domain L43F 1.09 | SHP2 N-SH2 domain T42A 1.23 | SHP2 N-SH2 domain T52S 1.62 | [2] 1.24

GKVFVYHGSSL [ITGA7_Y458_I457V]
inactive: SHP2 C-SH2 domain E139D 1.14 | [1] 0.841 | SHP2 N-SH2 domain L43F 1.1 | SHP2 N-SH2 domain T42A 0.949 | SHP2 N-SH2 domain T52S 1.03 | [2] 0.987

EEGRVYVYHLS [ITGAE_Y549_R552H]
inactive: SHP2 C-SH2 domain E139D 0.606 | [1] 0.703 | SHP2 N-SH2 domain L43F 0.617 | SHP2 N-SH2 domain T42A 0.495 | SHP2 N-SH2 domain T52S 0.459 | [2] 0.626
